Assay results from the RNAGym collection of RNA variant scans (doi:10.7554/elife.90254).
Read counts are not given, so values of variants with three or more changes are uncertain.

B1: LINE1-mini (parent)
chain: GGCAGAGCUCAACACAGCGUGGCAAAGUGGCUGUGGCUAGACUGCC

Variants of: B1
Experiment: self-cleavage, relative activity (ratio to wild type); higher = more cleavage; in vitro, sequencing; the parent is a self-cleaving ribozyme

Row | Variant | self-cleavage
1 | GGGAGAGCUCAACACAGCGUGGCAAAGUGGCUGUUCCUAGACUGCC | 0.06
2 | GGAAGAGCUCAACACAGCGUGGCAAUGUGGCUGUGGCUAGCCUGCC | 0.1
3 | GGCAGAGCUGAACACAGCGUGGCAAAGUGUCUGUAGCGAUACCGCC | 0.01
4 | GGCAGAGCUCAACACAGCGGGGCAAAGUGGCUGUGGCAAGACUUCA | 0.04
5 | GGCAGAGCUCAACACGGCGGGUCAAAGUGACUGUGGCUAGACUGCC | 0.17
6 | GGCACAGCUAAACACAGCGUGGCAAAGUGGCUGUGGCUAGCCUGCC | 0.03
7 | GGGAUAGCUCAAAACAGCUUGGCAAAUUGGCUGUGGCUAUACUGCC | 0.02
8 | GGCAGAGCUCAAGUCAGCGUGGCAAAGUGUCUGUGGCUAGACUGCC | 0.48
9 | GGCAGAGCUCAACGCAGCGUGGCAAAGUGGCUGUAGCUAGACUGAG | 0.05
10 | GGCCGAGCACAACACAGCGUGGCAAAGUGGCUGUGGCUUGGCUGGC | 0
11 | GUCACAGCUCAACACAGCGUUGCAAAGUGUCUGUGGCUAGACUGCC | 0.03
12 | GUCAGAGCUCAACGCAGCGUGGCAAAGUGGCUUUGGCUAGCCUGCC | 0.01
13 | GGCAGAGCUCAACAAAGCGUGGAAAAGUGGCUGGGGCUAGACUGCC | 0.03
14 | GGCAAAGCUCAACACAGGGUGGCAUAUUGGCUGUGGCUAGACUGCC | 0.08
15 | GGCACAGCUCAACGAGGCGUGACAAAGUGGCUGUGGCUAGCCUGCC | 0.02
16 | GGUUGCGCUAAACACAGCGUGGCAAAGUGGCUGUGGCUAGACUGCC | 0.05
17 | GGCAAAGCUCAACACAGCGUGGCAAAGUGGCCGUGACUAGACUGCC | 0.05
18 | GGCAGGGCUCAAGAGAGCGUGGCAAAGUGGCUGUGGCUAGACUGCC | 0.01
19 | GGCAGAGCUCAACACAGGGUCGCAAAGGGGCUGUGGCUAGACUGCC | 0.37
20 | GGCAGAGUUCAGCACAGCGGGGCAAAGUGGUUAUGGCUAGACUGCC | 0.08
21 | GGCAGAGCUCAACUAAGCGUGGCAAAGUGGCUGAGGCUAGACUGCC | 0.03
22 | GACCGAGCUCAACACAGCGUGGCAAAGUGGCUGUGGCUAUACGGCC | 0.25
23 | GGCAGAACUCAACACAGCGUGGCAAAGUGGCCGUGGCUAAACUGCC | 0.06

Row | Variant | self-cleavage
24 | GGCAGAGCGCAACACAGCGUGGGAAAGUAGCUGUGGCUAGACUGCC | 0.04
25 | GGCAGAGUUCAACACAGCGUGGCAAAGUGGCUCUGGCAAGUCUGCC | 0.07
26 | GGCAGAGCUCAACACAUCGUGGCAAGGUGGCUUUGGCAAGACUGCC | 0
27 | GGCAGCGCUCAUCACAGCGUGGAAAAGUGCCUGUGGCUAGACUGCC | 0.11
28 | GGCAGAGUUCCACACACCGUGGCAAAGUGGCUGUGGCUAGACUGUC | 0.01
29 | CGCAGAGCUCAUCACAGCGUGGCAAAGGGGCUGUGGCUUGACUGCC | 0.03
30 | UGCAGAGCUCAACAUAGCGAGGCAAAGUGUUUGUGGCUACACUGCC | 0.02
31 | GCCAGAGCUCAACACAGCGUGGCAAAGUGUCUGUGGCUAGAAUGCC | 0.18
32 | GGCAGAGCUCAACACAGCGUGGCGAAGUGGCUGUGGCUCGACUGCG | 0.36
33 | GGCUGAGCUCAACAGAGCGUGGCAAAGUAGCUGUGGCUAUACUGCC | 0.09
34 | GGCAGAGGUCAACACAGUGUGGCAAAGUGGCUGUGGCUAGAUUGCC | 0.03
35 | GGCAGAGCUUAACACCGCGUGGCCAAGUGGGUGUGGCUAGACUGCC | 0.02
36 | GGCAGUGCUCAACACAGCGUGUCAAAGGGGCUGGGGCUAGACUGCC | 0.12
37 | GGCAGAGCUCAACAAAUGGUGCCAAAGUGGAUGUGGCUAGACUGCC | 0.03
38 | GGCAGAGCUCAACACACCAUGGCAAACUGGCUGUGGCUAGACUGCC | 0.18
39 | GGCAGUGCUCAACACAGCGUGGCAAAGUGGCUGUUGCUAAACUACC | 0.65
40 | GGCAGAGCUAAACACAGCGUUGCAAAGUGGCUUUGGCUAGACUGCC | 0.07
41 | GGCAGAGCUCAACACAGCGUGGCGAAGUGGCUGUGUCAAGACUGUC | 0.02
42 | GGCAGAGCUAAACAUAGAGUGGCAAAGUGGCUGUGGCUAGACUGCC | 0.09
43 | GGCGGAGCUCAGCACAGAGUGGCAAUGUGGAUGCGGCUAGACUGCC | 0.08
44 | GGCAGAGCUCAACACAUCGUGGCAAAGUGGCUGGGGCUCGACUGCC | 0.04
45 | GACAGAGCUCAACACAGCUUGGCAAAGUGGCUGUGGUUAGACCGCC | 0.1
46 | GGCAGAUCUCAACAAGGCGUGGCAAAGUGGCUGUGGCUAGACUGCC | 0.04

Row | Variant | self-cleavage
47 | GGCAGAGCUCAACACAGCGCGGCAAAGAGGCUGUUUCUAGACUGCC | 0.12
48 | GGCAGAGCUCAACAAAGCGUGGCAAAGUGGCUGAGGUUAAACUGCC | 0.02
49 | GGCAGAGCUCAACAGAGCGUCGCAAAGUGGCUGUGUCUAGACUGCC | 0.02
50 | GGCAGAGCUCAAUACAGCGUGACAAAGUGGCAGUGGCUAGACUGCC | 0.09
51 | GGCAGAGAUCAACACAGCGUGGCAAAGUGGCUGUGGCUCAACUGCC | 0.21
52 | GGCAGAGCUCAACUCAGCGUGGCAAAGUGGUUGUGGCUAGAAUGCC | 0.01
53 | GGCAGAGCUCAAAACAGCAAGGCAAAGUGGCUGUGGCUAGACUGCC | 0.24
54 | CACAGAGCUCAACAUAGCGUGGCAAAGUGGCUGUGGCUAGACUGCC | 0.17
55 | GGUAGAGCUCAACACAGCGUGGCAAACUGGUUGUGGCUAGACUGCC | 0.02
56 | GGCAGAGCUCAACAAAGCGUGGCUAAGCGGCUGUGGGUAGACUGCC | 0.07
57 | GGCGGAGCGCAACACAGCGUGGCACAGUGGCUGUGGAUAGACUGCC | 0.03
58 | GGCAGAGCUCAACACAGCGUGGCAAGGUGGCUGUGGCUAGGCUUCC | 0.07
59 | GGGAGAGCGCAACACAGCAUGGCAAACUGGCUGUGGCUAGACUGUC | 0.66
60 | GGCAGAGCUCAACACAGCGUGGAAAAUUGGCUGUGGCCAGACUGCC | 0.46
61 | GGAAGAGCGUAACACAGCAUGGCAAAGUGGCUGGGGCUAGACUGCC | 0.08
62 | GGCAUAGCUCAACACAGCGUGGCGAAUUGGUUGUGGCUAGACUGCC | 0.04
63 | GGCAGAACUCAACCCAGAGUGGCAAAGCGGCUGUGUCUGGAUUGCC | 0.03
64 | AGCAGAGCUCAACACAGCGUGGCUAAUUGGCUGUGGCUAGACUGCC | 0.34
65 | GGCAGAGCACAACACAGCCUGACAAAGUGGCUGGGGCUAGACUGCC | 0.04
66 | GGCAAAGAUCAACACAGCGUAGCAAAGUGGCUGUGGCAAGCCUGCC | 0.17
67 | GGCAGAGAUCUACACAGCGUGACAAAGUGGCUGUGGCUAGACUGCC | 0.05
68 | AGCAGAGCUAAACACAGCGUGUCAAAGUGCCUGUGGCUCGACUGCC | 0.04
69 | GGCAGAGGUGACCACAGCGUGGCAAAGUGGCGGUGACUAGACUGCC | 0.01

Row | Variant | self-cleavage
70 | GGCAGAUCUCAACAUAGCGUAGCAAAGUGGUUGUGGCUAGACUGCC | 0.06
71 | GGUAGAGGUCAACACACCGUGGCAAAGUGGCUGUGGCUAGACUGCC | 0.03
72 | GGCUGUGCUCAACUUAGCGUGGCAAAGUAGCUGUGGCUACAAUGAC | 0.07
73 | GGCAGAGCUCAACACAGAGUGCCAAAGUUGAUGUGGCUAGACCGCC | 0.02
74 | GGCAGACCUCAACACAGCCAGGCAAAGUGGCCGUGGCUAGACUGCC | 0.01
75 | GAGAAAGGGCAACACAACGUGGCAAAGUGGCUGUGGCUAGACUGCC | 1.55
76 | GGUAGAGCUCAACACAGCCUGGCAAAGUGGCCGUGGCUAGACUGCC | 0.09
77 | GGCAGAGCGCAACACUGCGUGGCAAAGUGGCGGUGGCUAGACUGCC | 0.06
78 | CGCAGAGCUCAACACAGCGUGGCUAAGUGGCGGUGGCUAGACUCCC | 0.04
79 | GACAGAUCUCAACACAGCGUGGCAAAGUGGUUGUGGAUAGACUGCC | 0.06
80 | GACAGAGCUCAACACAGCGUGGCAAAGUGGCUGUGGAUAGACUGCG | 0.2
81 | GGCAGAGCUCAAAACAGCGUGGCAAAGUGUCUCUGGCUAGACUGCC | 0.05
82 | GGAAGAGCUCAACUCAGCGUGGCAAAGUGGCUGUGGCUAAACUGCC | 0.09
83 | CGCAGAGCUCAAUACAGCGUGGCAAAGUGGCUGUGGAUAGACUUCC | 0.02
84 | GGCAGAGCUCAACACAGCGUGGCAAAGUGGAUGUGACUAGACAGCC | 0.12
85 | GGGAGAGCUAUACAAAGCGUGACAAGGUUGUUGUGGCUAGACUGCC | 0.02
86 | GGCAGAGCACAAAACAGCGUGGCAAAGUGGCUGAGGCUAGACUGCC | 0.26
87 | GGCAGAACUCAACACUGCGUUGCAAAGUGGCAGUGGCUAGAUUGCC | 0.03
88 | GGCAGUGCUCAACACAGCGUGGCAAAGUGGCUGUGGCUAUACCGCC | 0.05
89 | GGCAGAGACCAACACAGCGUGGCAAAGUGGCUGUGGCUAUACUGCC | 0.04
90 | GGCAGAGCUCAACACAGCGUUGCAAAGUGGCUGUAGCUAGAUUGCC | 0.01
91 | GGCAGAGCUCAACCCAGCGUGGGAAAGUGACUGUGGCUAGACUGCC | 0.06
92 | GUCCGCGCUCAAAACAGCGUGGCAAAGUGGCUGUGGCUAGACUGCC | 0.04

Row | Variant | self-cleavage
93 | GUCAGAGCUCAACACAGCGUGGCAAAUUGGCUGUGGCUAGAGUACC | 0
94 | GGCAAAGAUCAACACAGCGUGGCAAAUUGCCUGUGGCUAGACUGCC | 0.2
95 | GCCAGAGCUCAACACAGAGUGGCAAAGUGGCUGUGGCUCGACUGCC | 0.05
96 | GGCAGAGCUGAACACAGCGUGGCAAAGUGGCUGUGGCUAGACUCCU | 0.03
97 | GGCAGAGCUCAACCCAGCGUUGGAAAAUGGCUGUUGCUAAACUGCC | 0.04
98 | GGAAGAGCUCAACACUGCGUGGCAAAGAGGCUGUGGCUAGACUGCC | 0.03
99 | GGCAGAGCACACCACAGCGUGGCAAAGUGGCUGUGGCUCGACUGCC | 0.02
100 | GGCAGAGCUCAAAACAGCGUGGCAAAGGGGCUGUGGCUUGACUGCU | 0.01
101 | GGCAGAGCUCAACACAGGGUGGCAACGAGGGUGUGGCUAGACUGGC | 0.04
102 | GGCAGAACUCAAGACAGGGUGGCAAUGUGGCUGUGGCUAGACUGCC | 0.04
103 | GGCAGAACUUAACACAGCCUGGCAAAGUGGCUGUGGCUAGAAUGCC | 0.01
104 | GGCAGAGCUCAAAACAGCUAGGCAUAGUGGCUGUGGCUACACUGCC | 0.11
105 | GGCAGAGCUCGACACAGCGUGGCAAAGUGGCUUUGGCUAGACUGCU | 0.03
106 | GGCAGAGCUCAUCAUAGCUUCGCAAAGUGUCUGUGGCUAGACUGCC | 0.2
107 | GGCAGAGCUCAACACAGCGUGGUAAAGUGGCUGUGGUUAGACUGUC | 0.02
108 | GUCAGAGCUCAACACAGCUUGGCUAAGUGGCUGUGGCUAGACUGCC | 0.02
109 | GGCAGGGCUCAACACAGCGUGACAAAGUGGCAGUGGCUAGACUGCC | 0
110 | GGCAGUGAUAUACACAGCGUGGCAAAGUGGCCGUGGCUAGACUACC | 0.01
111 | GGCCGAGCUCAACACAGCGUGGCAAAGUGGCUGUGGCUAGCCCGCC | 0.03
112 | GCCAGAGCUCAACACAGCGUGGCAAAGUGGCAGUGGCUAGGCUGCC | 0.08
